# Experimental data as given in ChEMBL document CHEMBL4888484, “Replenishing the malaria drug discovery pipeline: Screening and hit evaluation of the MMV Hit Generation Library 1 (HGL1) against asexual blood stage Plasmodium falciparum ,using a nano luciferase reporter read-out” (2022).
# Screen size: about 150,000 compounds; about 540 (0.36%) showed an effect of 50% or more. The list shows a part of the results.
# Tested on: Plasmodium falciparum
# Experiment: Primary screen in NF54 nanoGlo assay, in single point, at 2uM, 72h; a lower Z score goes with more inhibition
# Format: functional, Erythrocyte
# Conditions: timepoint 72 hour
SMILES,% Inhibition [%],Z score
Cc1c(CN2CC(c3ccccc3)(c3ccccc3)CCC2=O)cnn1C,-6,1.1
C[C@H]1CN(C)c2ccccc2CN1C(=O)NC1CCC(=O)NC1C1CCCO1 (some centres undefined),-1,0.27
CCc1n[nH]c(NS(=O)(=O)c2ccc3c(c2)S(=O)(=O)CC3)c1Br,29,-3.26
O=C(CCCn1cccn1)NS(=O)(=O)c1ccc2c(c1)CCCC2,-19,3.02
O=C(Nc1ccsc1-c1nc(-c2ccc(F)c(F)c2)no1)c1cc(F)ccc1F,-11,1.09
CCn1c(-c2cccnc2)nc2cc(NC(=O)COC)cc(C(=O)N(C)CC(=O)OC)c21,-16,1.87
COCC(O)CN1CCC(NC2CCCc3cc(F)ccc32)CC1 (centres undefined),1,-0.12
C=CCn1nc(C(=O)N2CCCCC2)c2c1CC[C@H](NC1CCN(Cc3ccccc3)CC1)C2,-10,1.17
CC(=O)NCC(=O)Nc1ccccc1NCC1CCCCC1,-11,0.91
C[C@H](NC(=O)CC1CC(C)(C)NC(C)(C)C1)[C@H](O)c1ccc(O)cc1,-13,1.25
CC(C)=CCC(C)(C)CNC(=O)NC1CCCCC1,-1,0.08
O=C(NCC[C@@H](CCO)c1ccccc1)C(=O)NC1CC1,18,-2.44
CCOc1ccc(OCc2nc(C[C@H]3CCCOC3)n(C(C)(C)C)n2)cc1,-19,2.01
O=C1COc2cc(C(=O)N3CCC(c4ncon4)CC3)ccc2N1,-13,1.3
CN(C)S(=O)(=O)Nc1cccc(COCC(F)(F)C(F)F)c1,-5,0.52
CC(C)Oc1ccccc1-c1c[nH]c(C(=O)N2CCOCC2)c1,-10,1.32
CC(C)CN(CC(C)(C)C)C(=O)c1cnns1,-2,0.23
CCOc1ccc(OC(C)(C)C(=O)OCc2cn3ccccc3c2C#N)cc1,-2,0.2
CN(CC(=O)Nc1nc(C(F)(F)F)ns1)S(C)(=O)=O,4,-0.59
COc1ccc2cc1Oc1cccc(c1)CO[C@H]1CN(C(=O)C3CCN(C)CC3)C[C@@H]1NC(=O)CN(C)C2,-10,1.81
Cc1cc(C)nc(N(C)CCc2nc3ccccc3[nH]2)n1,-6,0.89

SMILES,% Inhibition [%],Z score
COc1cccc(CCNC(=O)c2ccoc2C2CC2)n1,-14,1.16
CCc1nc(C2CCN(Cc3cc(F)ccc3OC(F)F)CC2)n[nH]1,13,-1.69
CCCOc1ccc(CCC(=O)NCc2nccnc2-c2cccnc2)cc1,-20,2.9
CC(C)CCC1CCCC1NC(=O)C(=O)Nc1ccn(C)n1 (centres undefined),2,-0.33
Cc1nc(C)c(COc2c(C)nn(C)c2C)s1,32,-3.66
Cc1noc(C)c1-n1c(CCNc2ccccc2)n[nH]c1=O,-6,1.1
O=C1CN(c2ccc(CNC(=O)N3CCOCC3)cc2)CCN1,9,-1.16
CC(=O)Nc1ccc(S(=O)(=O)Nc2ncn(Cc3ccc(Cl)cc3)n2)cc1,27,-3.57
COc1cccc(OC)c1CN1CCC2(CC1)C[C@@H]2C(=O)N(C)Cc1cscn1,-3,0.39
C[C@@H](C(=O)N(C)C)N(C)Cc1cnc(NCc2ccccc2)nc1,5,-0.99
CCOC(=O)C1CCCN(C(=O)C2CC(c3cccc(C)c3)CN(C(C)=O)C2)C1 (centres undefined),-7,1.14
O=C1CCC2(CCN1Cc1ccccc1)CCN(C(=O)c1cccc(F)c1)CC2,5,-0.54
N#Cc1ccc2nc(NCCn3ccnc3)ccc2c1,-7,1.09
O=C(NCCc1nnc2ccccn12)Nc1nncs1,-1,0.11
COCCC1(CNC(=O)CCC(=O)c2ccccc2)CC1,0,-0.08
CCc1nc(N(CCOC)CCC(=O)NCc2ccco2)c2cc(Cl)cc(Cl)c2n1,-9,1.7
C[C@H](NC(=O)c1cc(C2CC2)no1)c1ncon1,-7,0.96
COc1cncc(O[C@H]2CCCN(C(=O)c3ccc(C#N)cc3)C2)n1,-10,1.68
CN1C[C@@H](c2ccccc2)CC2(CCN(Cc3cccnc3)CC2)C1,-9,1.21
Cc1ccccc1-c1cc(C(=O)Nn2cnnc2)c2ccccc2n1,-11,1.43
CC1CCCC(C)N1C(=O)CN1CCCC1c1nnc2ccccn12 (centres undefined),-2,0.21
